Data taken from publication PMC4336329 (PLoS ONE, 2015).
Among all 310,000 compounds or so, about 14,000 (4.5%) showed an effect of 50% or more. The effect is printed as a negative number. The list shows a part of the results.

Molecular target: human ether-à-go-go-related gene (hERG) potassium channel (human, UniProt Q12809)
Test: primary screen, population patch clamp on CHO cells stably expressing hERG
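Also: peak tail current of the secondary pulse compared with the same well before compound.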

human ether-à-go-go-related gene (hERG) potassium channel, sequence (Q12809 whole entry, looked up): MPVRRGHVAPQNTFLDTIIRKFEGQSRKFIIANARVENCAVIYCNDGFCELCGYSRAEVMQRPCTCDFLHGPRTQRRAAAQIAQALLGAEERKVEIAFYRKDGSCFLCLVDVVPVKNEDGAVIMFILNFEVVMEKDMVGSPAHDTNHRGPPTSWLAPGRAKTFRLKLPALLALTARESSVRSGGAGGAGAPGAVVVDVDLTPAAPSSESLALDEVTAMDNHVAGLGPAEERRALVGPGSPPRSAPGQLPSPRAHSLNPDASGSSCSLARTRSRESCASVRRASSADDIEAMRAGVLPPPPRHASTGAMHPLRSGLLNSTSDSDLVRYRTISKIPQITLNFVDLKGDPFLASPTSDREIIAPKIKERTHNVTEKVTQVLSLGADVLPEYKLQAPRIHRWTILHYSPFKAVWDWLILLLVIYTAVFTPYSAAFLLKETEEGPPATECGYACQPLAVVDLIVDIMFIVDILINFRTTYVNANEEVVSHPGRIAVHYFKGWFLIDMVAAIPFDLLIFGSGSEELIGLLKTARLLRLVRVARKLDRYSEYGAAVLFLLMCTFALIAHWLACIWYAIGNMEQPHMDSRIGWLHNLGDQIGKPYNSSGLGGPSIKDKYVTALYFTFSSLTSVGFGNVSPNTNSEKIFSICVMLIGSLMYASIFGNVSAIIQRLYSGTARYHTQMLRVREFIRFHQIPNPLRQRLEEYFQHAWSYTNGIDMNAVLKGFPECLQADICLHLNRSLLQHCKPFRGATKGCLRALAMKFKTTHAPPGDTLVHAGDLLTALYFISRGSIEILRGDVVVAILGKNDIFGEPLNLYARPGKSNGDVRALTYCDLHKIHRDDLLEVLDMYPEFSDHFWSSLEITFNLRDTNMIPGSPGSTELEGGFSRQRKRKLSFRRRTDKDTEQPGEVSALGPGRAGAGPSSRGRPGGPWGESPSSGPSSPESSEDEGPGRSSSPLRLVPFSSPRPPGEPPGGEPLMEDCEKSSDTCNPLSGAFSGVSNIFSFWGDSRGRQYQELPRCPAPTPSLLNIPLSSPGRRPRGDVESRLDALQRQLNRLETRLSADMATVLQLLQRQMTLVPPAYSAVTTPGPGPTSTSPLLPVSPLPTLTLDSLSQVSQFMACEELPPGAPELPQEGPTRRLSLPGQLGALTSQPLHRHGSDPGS

Compound | hERG current change (%, negative = inhibition) at 10uM
CCn1c(=O)n(CC(=O)NCc2ccco2)c(=O)c2ccccc21 | 12.8%
COc1ccc(CC(=O)NC(CC(=O)O)c2ccc(OC)cc2)cc1 (centres unmarked) | 4.28%
O=C(C1=C[C@H](c2ccc(C(F)(F)F)cc2)C[C@H](OCCCCO)O1)N1CCN(Cc2ccccc2)CC1 | -49.6%
CC(C)(C)NC(=O)c1cc(F)c(F)cc1Cl | 12.9%
FC(F)(F)c1ccc(CN2C[C@@H]3C(c4ccc(Cl)nc4)C4(c5cccnc5)CC3(C4)[C@H]2c2ccccc2)cc1 (some centres unmarked) | -8.85%
O=C(CSc1ccccc1)N1CCCC(N2CCN(c3cccc(Cl)c3)CC2)C1 (centres unmarked) | -54.1%
c1ccc2c(Nc3nncs3)c3ccccc3nc2c1 | 11.9%
COc1ccc(CCNC(=S)N2CCN(S(=O)(=O)c3cccc(F)c3)CC2)cc1 | -4.44%
O=C(NNC(=O)C1CC1)Nc1ccc(Cl)cc1 | 6.38%
O=C(CSc1ccc(S(=O)(=O)N2CCOCC2)cn1)Nc1ccc(OC(F)F)cc1 | -0.0257%
CCOCCOC(=O)C1=C(C)N(C)C(=O)NC1c1ccccc1F (centres unmarked) | -2.15%
COc1ccc2[nH]cc(C3N4CC5(C)CN3CC(C)(C4)C5=O)c2c1 (centres unmarked) | 6.1%
COc1ccc2c(-c3ccccc3)cc(SCC(=O)NC(N)=O)nc2c1 | 19.7%
S=C1NCN(Cc2ccccc2)CN1C1CCCCC1 | 20.6%
CCOC(=O)c1c(N2C(=O)Nc3ccccc3N2O)n[nH]c1-c1cccc(Cl)c1 | 7.1%
Cc1cc(C)cc(N(CC(=O)Nc2ccc(C)cc2Cl)S(=O)(=O)c2c(C)[nH]c(=O)[nH]c2=O)c1 | -7.63%
O=C(NC1CCCCC1)N(Cc1ccccc1)Cc1ccco1 | -11.9%
COC(=O)c1nn(-c2ccc(Cl)cc2)c(=O)cc1Sc1ccccn1 | -11.5%
O=c1nc(N/N=C/c2ccco2)cn[nH]1 | 29.1%
COc1cccc(C(=O)N2CCN(S(=O)(=O)Cc3ccccc3)CC2)c1OC | -3.66%
CCCN(c1nc(C)cc(OC)n1)S(=O)(=O)c1ccccc1 | 0.318%
Cc1ccc(NC(=O)c2nc[nH]c2C(=O)N2CCC(C)CC2)cc1 | -0.182%

Compound | hERG current change (%, negative = inhibition) at 10uM
c1ccc2sc(Cc3nnc4n3CCCCC4)nc2c1 | -1.47%
Cn1nc(-c2ccc(OCC(=O)Nc3cccnc3)cc2)c2ccccc2c1=O | -11.7%
CCCCc1nc(SCC(=O)N2CCCCC2)c2c(=O)n(C)c(=O)n(C)c2n1 | -31.5%
Cc1ccc2c(c1)N(CCCC(=O)NCCC1=CCCCC1)C(=O)CO2 | -9.81%
COc1ccc(C(=O)Nc2ccc(S(=O)(=O)N3CCCCC3)cc2)cc1 | -8.51%
CCc1cccc2sc(NC(=O)C3CC3)nc12 | -17.8%
COCc1[nH]nc2c1C1(C(=O)Nc3ccc(F)cc31)C(C#N)=C(N)O2 (centres unmarked) | -21.5%
CC1(c2nnc(Cc3ccccc3)o2)CC(c2cccc(Cl)c2)=NO1 (centres unmarked) | 2.8%
COc1ccc(C(C(=O)Nc2ccc(C(C)C)cc2)N(Cc2ccco2)C(=O)CC2NC(=O)NC2=O)cc1 (centres unmarked) | -13.4%
O=C(CSc1ccc(F)cc1)N1CCN(S(=O)(=O)c2ccccc2)CC1 | -8.51%
Clc1cccc(CN2CCN(c3ncccn3)CC2)c1Cl | -14.7%
S=c1[nH]nc(-c2ccncc2)n1Cc1ccccc1 | 8.95%
COc1ccccc1Nc1nc(N)nc(CSc2nccn2C)n1 | -3.65%
CS(=O)(=O)c1ccc(NS(=O)(=O)c2ccc(Cl)c(C(=O)NCc3ccco3)c2)cc1 | 9.88%
CC(C)N1CC(C(=O)Nc2ccc(F)c(Cl)c2)CC1=O (centres unmarked) | 10.8%
COc1ccccc1OCC(=O)N/N=C1\CCc2ccccc21 | -14%
COc1ccccc1C(=O)NNC(=O)c1ccc(NS(=O)(=O)c2cccs2)cc1 | 27.5%
Cc1cccc(C)c1NC(=O)CNCC(=O)Nc1c(C)cccc1C.Cl | 17%
O=c1cccc2c1c1cc[nH]c3ccc(=O)n2c31 | 18.2%
COc1cc(NC(=S)NCCN2CCOCC2)cc(OC)c1OC | 16.2%
CCOP(=O)(c1ccc(N(C)C)cc1)C(O)c1ccncc1 (centres unmarked) | 10.8%
O=[N+]([O-])c1ccc2nc(-c3ccccc3[N+](=O)[O-])[nH]c2c1 | 20.2%
